Measured values: PubChem BioAssay AID1345083 (National Center for Advancing Translational Sciences (NCATS), 2018)
The campaign covered roughly 94,000 compounds. About 6,200 (6.6%) were called active. Inconclusive means that the source gave no clear call. Such entries were picked first, then a sample of the others. Calls follow the shape of the dose curve; as a rule, active = well fitted inhibition curve with a large enough effect; inconclusive = small, poorly fitted or top-dose-only effect; inactive = flat fitted curve, though single readings scatter. Where the call is inconclusive, the potency comes from a doubtful curve fit.

Test: Cytotoxic Profiling in HEK 293 Cell Line of Diverse Libraries Using Quantitative High-Throughput Screening; also: nearly all actives have a fitted effect of over 60% in size
Conditions: HEK 293 viability, ATP luminescence (CellTiter-Glo), 48-72 h; series mostly up to 115 µM
Method in brief: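 CellTiter-Glo luminescence (cellular ATP) was read after 48 or 72 hr of compound exposure at 37 degree Celsius. Cells were HEK 293 plated at 250 cells/well.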
Potency is read from the fitted curve at half-maximal effect; tags tell the direction and shape of the fitted curve.

Compound	Potency
CCn1ccc(C(=O)N2c3ccccc3CC2c2nc(C(C)C)no2)n1 (stereo unspecified)	inconclusive: 44.7 µM [inhibitor, partial curve, poor fit]
O=C(Nc1cccc2ccccc12)O[C@@H]1CO[C@H]2[C@@H]1OC[C@@H]2NC(=S)Nc1cccc2ccccc12	inconclusive: 39.8 µM [inhibitor, partial curve]
COc1ccc(OCC(O)CN2CCC(=O)N(CC3CC3)Cc3ccccc32)cc1 (stereo unspecified)	inconclusive: 35.5 µM [inhibitor, partial curve, poor fit]
Cc1cnc(C(=O)NC2C[C@H]3CC[C@@H](C2)N3C(=O)Cc2ccsc2)cn1 (stereo partly specified)	inactive
CC(C)(C)CC(=O)Nc1ccc([C@@H](O)[C@H]2COCC(=O)N2CCCc2ccccc2)cc1	inactive
CN(Cc1ccc(C(F)(F)F)cc1)C1CCc2ccccc21 (stereo unspecified)	inconclusive: 100 µM [inhibitor, partial curve, poor fit]
COc1ccc(CNC(=O)C2CCCN2c2nccc(Nc3ccccc3OC)n2)cc1 (stereo unspecified)	inconclusive: 79.4 µM [inhibitor, partial curve, poor fit]
CC(C)C[C@@H]1N[C@H](C(=O)NCc2ccc(F)cc2)Cc2c[nH]c3cccc1c23	active: 28.2 µM
Cc1c(CN2C[C@@H](CN(C)CCO)[C@@H](CO)C2)[nH]c2c(Cl)cccc12	active: 44.7 µM
O=C(Nc1cccc(Cl)c1)N[C@H]1C[C@H]2C(=O)NC[C@@H](CCC(=O)N3CCc4ccccc43)N2C1	inactive
Cc1noc2c(N(C)C)cc(-c3cccnc3)nc12	inactive
CNC(=O)C1C(=O)NCC12CCN(C(=O)c1ccc(C(C)(C)C)cc1)CC2 (stereo unspecified)	inactive
COc1cccc(CN2C(=O)CCCCC2C(=O)N2CCN(c3ccccn3)CC2)c1 (stereo unspecified)	inactive
CC(=O)NC1CCCN(Cc2ccc(-c3cncnc3)cc2)C1 (stereo unspecified)	inactive
Cc1cccc(OCCc2noc(C3CCCCN3S(C)(=O)=O)n2)c1 (stereo unspecified)	inconclusive: 79.4 µM [inhibitor, partial curve, poor fit]
CC(C)c1nc(-c2ccc(OC3CCN(C(=O)c4ccccc4F)C3)cc2)no1 (stereo unspecified)	inconclusive: 44.7 µM [inhibitor, partial curve, poor fit]
CC1=C[C@@H](CNCc2cccnc2)[C@H](C(C)C)C[C@H]1Cc1nnc(-c2ccccc2F)o1	inconclusive: 100 µM [inhibitor, partial curve, poor fit]
CC(C)CCN1CCC(Cc2ccc(C(=O)NC3CC3)cc2)CC1	inconclusive: 56.2 µM [inhibitor, partial curve, poor fit]
COCCN1C[C@@H]2[C@H](c3ccccc31)[C@@H](CO)[C@@H](c1ccccc1)N2C(=O)C1CC1	inconclusive: 89.1 µM [inhibitor, single point]
O=C(O)C[C@@H]1CCN(C(=O)c2ccc(F)cc2)C[C@@H]1CCN1CCN(c2cccc(C(F)(F)F)c2)CC1	inactive
COc1ccc(-c2nc3cc(C)ccc3cc2CN2CC[C@@H](O)C2)cc1OC	inconclusive: 31.6 µM [inhibitor, partial curve]
O=C(NCCc1ccco1)C1c2ccccc2C(=O)N(Cc2ccccc2)C12CCCC2 (stereo unspecified)	inconclusive: 56.2 µM [inhibitor, partial curve, poor fit]

Compound	Potency
CCOc1ccccc1CNC(=O)[C@@]12CCCC[C@H]1N(CCOC)C(=O)CC2	inconclusive: 89.1 µM [inhibitor, single point]
CC(=O)N1CCN(C(=O)C2CCc3nnc(C4CCN([S+](C)(=O)[O-])CC4)n32)CC1 (stereo unspecified)	inactive
CC1=C[C@@H](CNC(=O)C2CC2)[C@H](C(C)C)C[C@H]1Cc1nnc(-c2cncn2C)o1	inconclusive: 100 µM [inhibitor, partial curve, poor fit]
COc1ccc(CCNC(=O)C2CCc3nnc(-c4cccc(C(F)(F)F)c4)n32)cc1 (stereo unspecified)	inactive
COc1cccc(CNC(=O)c2noc(-c3ccc(C)cc3)n2)c1	inactive
Cc1ccc(C2=NC3(CCN(C(=O)c4cc(F)ccc4F)CC3)ON2)cc1	inconclusive: 35.5 µM [inhibitor, partial curve, poor fit]
COC1CCCN(C(=O)c2cc(-c3cccc(N(C)C)c3)cc3ncn(C)c23)C1 (stereo unspecified)	inconclusive: 112 µM [inhibitor, partial curve, poor fit]
c1ccc(-c2cc(CC3(NCC4CCCCC4)COC3)no2)nc1	inactive
CCCC[S+](=O)([O-])N1CC(=O)N(CCCc2ccccc2)CC(O)C1 (stereo unspecified)	inconclusive: 89.1 µM [inhibitor, single point]
O=C(NCc1cccs1)c1ccc2nc(-c3ccccn3)oc2c1	inconclusive: 39.8 µM [inhibitor, full curve]
C=CCCC(CN1CCOCC1)Oc1ccc(-c2nc(C)no2)cn1 (stereo unspecified)	inactive
O=C(c1cccc(Cl)c1)N1CCC(C(=O)N2CCC(N3CCOC3=O)CC2)CC1	inactive
COc1ccccc1C(=O)N1CCN(c2ccc3nnc(-c4ccccc4)n3n2)CC1	inconclusive: 44.7 µM [inhibitor, partial curve]
Cc1ccc(NC(=O)CN2C(=O)NC3(CCC(C)CC3)C2=O)cc1 (stereo unspecified)	inconclusive: 79.4 µM [inhibitor, single point]
COc1ccc(C(=O)N2CCC3(CC2)OC(=O)N(Cc2ccccc2F)C3(C)c2ccccc2)cn1 (stereo unspecified)	inconclusive: 79.4 µM [inhibitor, partial curve, poor fit]
CC[C@@]1(C(=O)O)C[C@H](C(=O)N(C)CC(=O)O)[C@H](c2ccc(OC)cc2)N1C	inconclusive: 89.1 µM [inhibitor, single point]
CN(Cc1ccccc1)C(=O)C1(C)CCCc2cnc(Nc3cccnc3)nc21 (stereo unspecified)	inconclusive: 89.1 µM [inhibitor, partial curve, poor fit]
CC1(C)[C@H](Cc2cc(CN3CCCCC3)on2)C[C@@H]1N	inconclusive: 141 µM [inhibitor, partial curve, poor fit]
Cc1ncsc1C1N(C2CCN(C(=O)NC3CCCCC3)CC2)C(=O)C12CCCC2 (stereo unspecified)	inconclusive: 63.1 µM [inhibitor, partial curve, poor fit]
O=C(c1ccccc1)N1CCCN(CCn2nc3n(c2=O)CCCC3)CC1	inactive
c1cc2c(cc1OC1CNC1)OCO2	inactive
COc1ccc([S+](=O)([O-])N2CCC(N3Cc4cccn4C3=O)CC2)cc1	inconclusive: 89.1 µM [inhibitor, single point]

Compound	Potency
O=C1COCC2(CN1Cc1ccccc1)CN(c1ccccc1)C2	inconclusive: 100 µM [inhibitor, partial curve]
Cc1nn(C)cc1CN(C)Cc1cn(C)nc1-c1ccc(C2CCCCC2)cc1	inconclusive: 89.1 µM [inhibitor, single point]
Cn1c([C@H]2CCN(Cc3cccc(C#N)c3)C2)nc2ccccc21	inconclusive: 100 µM [inhibitor, partial curve, poor fit]
CCOc1ccc(NC(=O)N2c3ccccc3CC2c2noc(C3CCOCC3)n2)cc1 (stereo unspecified)	inconclusive: 89.1 µM [inhibitor, single point]
Cc1nnc(-c2cc(-c3cnn(C)c3)ccn2)n1-c1ccccc1	inconclusive: 89.1 µM [inhibitor, partial curve, poor fit]
O=C(O)C1CCc2sc(C(=O)N3CCCC3)cc2C1 (stereo unspecified)	inactive
Cc1occc1C(=O)N1CC(F)(F)C[C@H]1c1nc(C2CC2)no1	inconclusive: 100 µM [inhibitor, single point]
COCCn1c(C)cnc1CC1CCCN(S(=O)(=O)c2cccc(OC)c2)C1 (stereo unspecified)	inconclusive: 79.4 µM [inhibitor, partial curve, poor fit]
CCOCCNC(=O)C1CCN(c2nccc(Nc3ccccc3OC)n2)CC1	inconclusive: 44.7 µM [inhibitor, full curve, poor fit]
O[C@]12CCNC[C@H]1CN(Cc1cccc(-c3ccccc3)c1)CC2	inconclusive: 50.1 µM [inhibitor, partial curve, poor fit]
CCN(CC)CCNCc1ccc(-c2ccccc2)o1	inactive
Cc1nc(C)c(C(=O)N2Cc3ccccc3OC3(CCN(C(C)C)CC3)C2)s1	inactive
O=C(Nc1ccc(F)cc1)c1ccc2c(c1)OCCN(CCC(F)(F)F)C2	inconclusive: 39.8 µM [inhibitor, partial curve, poor fit]
O=C([C@H]1CCCO1)N1CCC(c2cc(-c3ccccc3Cl)n[nH]2)CC1	inconclusive: 89.1 µM [inhibitor, single point]
COc1ccc(C(=O)N2CCCC(n3cc(-c4nc(-c5ccccc5)no4)nn3)C2)cc1F (stereo unspecified)	active: 20 µM
Cc1ccc2nc(CO[C@H]3CN(Cc4cn(C)c5ccccc45)C[C@H]3F)[nH]c2c1	active: 89.1 µM
C[S+](=O)([O-])N1CCC(c2nnc3n2C(C(=O)NCc2ccccc2F)CC3)CC1 (stereo unspecified)	inactive
Cc1ccccc1C(=O)NC1CCN(C(=O)c2ccc(-c3ncccc3C#N)cc2)CC1	inactive
CCc1noc(-c2cccn3c(CNC(=O)Cc4ccc(C)cc4)nnc23)n1	inactive
CS(=O)(=O)N[C@@H]1C[C@H](Cn2cc(-c3cccnc3)nn2)[C@@H](O)[C@H]1O	inactive
COc1cccc(CCC(=O)N2CCC(C3CCN(S(C)(=O)=O)CC3)C2)c1 (stereo unspecified)	inconclusive: 89.1 µM [inhibitor, single point]
COc1ccc(OCC2CN(CC3CC3)C(=O)c3ccc(C)nc3O2)cc1 (stereo unspecified)	inconclusive: 44.7 µM [inhibitor, partial curve, poor fit]
